From the supplement of paper PMC4967469
The IC50 comes from the fitted curve, where viability falls to half of the control; a limit (>, <) means that the fit lies beyond the doses tested. The AUC spans the tested range (256-fold, ending at the top dose) of the same fit; values near 1 show little effect. Any top dose called inferred was derived from the fitted curves, not read from the paper. For some assays here: Drugs with an entry number were screened twice under separate entries, and the two screens often disagree.

Key:
Experiment in all cases: Viability of human cancer cell lines after 72 h of drug (GDSC screen)
BMN-673 = compound: Cn1ncnc1[C@H]1c2n[nH]c(=O)c3cc(F)cc(c23)N[C@@H]1c1ccc(F)cc1 [BMN-673]; conditions: top dose 10 µM; top dose inferred
Description: (§1)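 Human cancer cell lines in 384-well plates, medium with 10% serum, drug for 72 h over a 256-fold dose range (nine 2-fold or five 4-fold steps up to the top dose). Adherent lines were fixed and stained with the nucleic acid dye Syto60, suspension lines read with resazurin; signal relative to control wells, capped at 0 and 100%. One two-parameter sigmoid per drug and line, fitted in a mixed model over all curves with the slope shared within a line.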

MLN4924 = compound: NS(=O)(=O)OC[C@@H]1C[C@@H](n2ccc3c(N[C@H]4CCc5ccccc54)ncnc32)C[C@@H]1O [MLN4924]; conditions: top dose 1 µM; top dose inferred
Description: as §1

XMD11-85h = compound: COc1cc(C(=O)NC2CCN(C)CC2)ccc1Nc1ncc2c(n1)N(C1CCCC1)CCC(=O)N2C(C)C [XMD11-85h]; conditions: top dose 10 µM; top dose inferred
Description: as §1

AZD6482 = compound: Cc1cc([C@@H](C)Nc2ccccc2C(=O)O)c2nc(N3CCOCC3)cc(=O)n2c1 [AZD6482]
Description: as §1

[1] = top dose 5 µM, screen: GDSC drug entry 1066, top dose inferred
[2] = top dose 5.12 µM, screen: GDSC drug entry 156

Cell Line	AUC (BMN-673)	IC50 (BMN-673)	AUC (MLN4924)	IC50 (MLN4924)	AUC (XMD11-85h)	IC50 (XMD11-85h)	AUC (AZD6482; [1])	IC50 (AZD6482; [1])	AUC (AZD6482; [2])	IC50 (AZD6482; [2])
H2869 (mesothelioma, adherent)	0.824	7.92 µM	0.819	0.756 µM	0.982	> 10 µM	0.977	> 5 µM	0.964	> 5.12 µM
H3118 (head and neck, adherent)	0.687	2.2 µM	0.681	0.211 µM	0.981	> 10 µM	0.854	4.54 µM	0.899	> 5.12 µM
HARA (lung squamous cell carcinoma, adherent)	0.689	2.34 µM	0.754	0.388 µM	0.921	> 10 µM	0.949	> 5 µM	0.961	> 5.12 µM
HCC202 (breast, adherent)	0.9	> 10 µM	0.921	> 1 µM	0.977	> 10 µM	0.978	> 5 µM	–	–
HCC1428 (breast, adherent)	0.95	> 10 µM	0.483	0.0558 µM	0.981	> 10 µM	0.963	> 5 µM	0.963	> 5.12 µM
HCC1569 (breast, adherent)	0.743	4.02 µM	0.662	0.206 µM	0.936	> 10 µM	0.834	4.93 µM	0.811	3.91 µM
HCC2157 (breast, suspension)	0.986	> 10 µM	0.983	> 1 µM	0.871	> 10 µM	0.625	0.702 µM	0.812	2.91 µM
HCC2218 (breast, suspension)	0.967	> 10 µM	0.978	> 1 µM	0.98	> 10 µM	0.967	> 5 µM	0.963	> 5.12 µM
HCC-78 (lung adenocarcinoma, adherent)	0.561	0.943 µM	0.605	0.128 µM	0.935	> 10 µM	–	–	0.817	3.5 µM
HCC-366 (non-small cell lung carcinoma, adherent)	0.916	> 10 µM	0.955	> 1 µM	0.987	> 10 µM	0.972	> 5 µM	–	–
HEC-1 (endometrium, adherent)	0.8	4.64 µM	0.877	0.938 µM	0.976	> 10 µM	0.937	> 5 µM	0.9	> 5.12 µM
HGC-27 (stomach, adherent)	0.09	< 0.0391 µM	0.623	0.129 µM	0.956	> 10 µM	0.954	> 5 µM	0.739	1.35 µM
HSC-2 (head and neck, adherent)	0.584	1.04 µM	0.683	0.194 µM	0.938	> 10 µM	0.716	1.21 µM	0.775	1.87 µM
HSC-39 (stomach, suspension)	0.969	> 10 µM	0.877	0.764 µM	0.983	> 10 µM	0.726	1.23 µM	0.991	> 5.12 µM
HT-1197 (bladder, adherent)	0.86	> 10 µM	0.956	> 1 µM	0.97	> 10 µM	0.905	> 5 µM	0.933	> 5.12 µM
HUTU-80 (digestive system, adherent)	0.299	0.191 µM	0.662	0.161 µM	0.991	> 10 µM	0.956	> 5 µM	0.955	> 5.12 µM
Hs939-T (melanoma, adherent)	0.885	> 10 µM	0.902	> 1 µM	0.968	> 10 µM	0.887	> 5 µM	0.868	> 5.12 µM
Hs940-T (melanoma, adherent)	0.877	> 10 µM	0.87	> 1 µM	0.981	> 10 µM	0.964	> 5 µM	0.779	2.57 µM
Hs-445 (Hodgkin lymphoma, suspension)	0.572	0.97 µM	0.813	0.492 µM	0.977	> 10 µM	–	–	0.878	4.53 µM
Hs-578-T (breast, adherent)	0.907	> 10 µM	0.865	0.979 µM	0.981	> 10 µM	0.834	3.56 µM	0.966	> 5.12 µM
HuH-7 (liver, adherent)	0.759	3.49 µM	0.691	0.214 µM	0.968	> 10 µM	0.884	> 5 µM	0.878	> 5.12 µM
IA-LM (large cell lung carcinoma, adherent)	0.93	> 10 µM	0.941	> 1 µM	0.962	> 10 µM	0.921	> 5 µM	0.962	> 5.12 µM
IHH-4 (thyroid, semi-adherent)	0.094	0.0446 µM	0.583	0.1 µM	0.965	> 10 µM	0.942	> 5 µM	0.878	3.48 µM
IST-MEL1 (melanoma, adherent)	0.48	0.546 µM	0.614	0.137 µM	0.954	> 10 µM	0.734	1.68 µM	0.669	1.05 µM
IST-SL2 (small cell lung carcinoma, suspension)	0.962	> 10 µM	0.943	> 1 µM	0.987	> 10 µM	0.952	> 5 µM	0.9	> 5.12 µM
JHOS-3 (ovary, adherent)	0.897	> 10 µM	0.969	> 1 µM	0.93	> 10 µM	0.93	> 5 µM	–	–
JHU-022 (head and neck, adherent)	0.837	9.37 µM	0.692	0.251 µM	0.933	> 10 µM	0.914	> 5 µM	0.89	> 5.12 µM
